About 200 (0.47%) of roughly 43,000 compounds were called active. Another 12% or so got no clear call; they are omitted. Calls come from the whole dose curve; as a rule, active = well fitted cell-killing curve with a large enough effect; inconclusive = small, poorly fitted or top-dose-only effect, or effect the other way; inactive = flat fitted curve, though single readings scatter. The list shows a part of the results.
experiment: Cell viability qHTS assay in S16 Pmp22-F2sN cells; settings: S16 Pmp22-F2sN Schwann cells viability, CellTiter-Glo, 24 h; series mostly up to 57.5 µM; activity change, negative = cytotoxicity: at the top concentration; note: nearly all actives have a fitted effect of over 65% in size
Procedure, shortened: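 Used to flag compounds lowering reporter output through toxicity, this quantitative HTS measures ATP-based CellTiter-Glo luminescence in S16 Pmp22-F2sN Schwann cells after 24 h compound exposure at 37C.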
% is set by controls: 0 for no effect and ±100 for the full control effect.

SMILES | activity change, negative = cytotoxicity
Cc1ccc(NC(=O)c2cnc(SCC(=O)N3CCOCC3)n(C)c2=O)cc1 | inactive: -2.54%
CCOc1ccc(OCC)c(NC(=O)Cn2ncc3c4ccccc4n(Cc4ccccc4)c3c2=O)c1 | inactive: 17.1%
CCc1ccc(CNC(=O)c2cccc(-n3cnc4cccnc43)c2C)cc1 | inactive: -10%
CCC1CN(C(=O)N2CCC(C(=O)NCCN(C)C)CC2)c2ccccc2O1 (configuration not stated) | inactive: 5.5%
Cn1ccc2cc(S(=O)(=O)N3CCCN(C(=O)Nc4ccccc4Br)CC3)ccc21 | inactive: 5.84%
CCc1ccccc1NC(=O)N1CCN(c2cc(-c3noc(C)n3)ccc2C)CC1 | inactive: -5.29%
COc1cc2ccccc2cc1C(=O)Nc1cccc(-c2nc3cc(C)c(C)cc3o2)c1C | inactive: 0.394%
COc1ccc2oc(=O)c(C(=O)NCCc3c(C)[nH]c4c(Cl)cccc34)cc2c1 | inactive: 1.45%
O=C(Nc1cccc(Cl)c1Cl)c1ccc2c(c1)N(Cc1cccc(Cl)c1)C(=O)c1ccccc1S2(=O)=O | inactive: 6.12%
Cc1nc2nc(NCc3cccc(Br)c3)[nH]n2c(=O)c1Cc1ccccc1 | inactive: -1.08%
CCC(=O)N1CCc2cc(Br)cc(S(=O)(=O)N3CCCC(C(=O)Nc4ccc(OC)c(Cl)c4)C3)c21 (configuration not stated) | inactive: 4.22%
Cn1nnnc1SCCNCc1ccc(F)cc1 | inactive: 4.41%
CCOC(=O)c1cccc(NC(=O)C(CC(C)C)N2Cc3ccccc3C2=O)c1 (configuration not stated) | inactive: -23.8%
Cc1ccc(CN(C(=O)COc2cccc([N+](=O)[O-])c2)c2ccccn2)o1 | inactive: -7.44%
O=S(=O)(Nc1ccc(Cl)cc1)c1ccc(NS(=O)(=O)c2ccc3c(c2)OCCO3)cc1 | inactive: -17.5%
COc1ccc(NS(=O)(=O)c2ccc3[nH]c4c(c3c2)CCCC4)cc1OC | inactive: -10.2%
CCCCOc1cccc(C(=O)N(Cc2ccc(C)o2)c2ccccn2)c1 | inactive: -5.78%
CCOc1ccc(CCNC(=O)c2cnc3sc(N4CCCC4)nn3c2=O)cc1 | inactive: -27.1%
CN(Cc1ccccc1)C(=O)c1nc(-c2ccc(Cl)cc2)n2c1CCCCC2 | inactive: -21.1%
CC1N=C2c3ccccc3N=C(SCC(=O)NCCc3ccccc3)N2C1=O (configuration not stated) | inactive: 1.98%
CC(=O)Nc1ccc(NC(=O)c2ccc3c(c2)N(Cc2cccc(Cl)c2)C(=O)c2ccccc2S3(=O)=O)cc1 | inactive: 9.33%
CCOC(=O)C(C)Sc1ccc2nnc(CCNS(=O)(=O)c3ccccc3)n2n1 (configuration not stated) | inactive: 11%
CCn1c(CN2CCCCC2)nc2cc(NC(=O)c3cc(OC)c(OC)c(OC)c3)ccc21 | inactive: -27.9%
Cc1ccc(Cl)cc1N1CCN(CCCNC(=O)c2ccc3nc(N4CCCCC4)sc3c2)CC1 | inactive: 6.81%
Cc1ccc(-n2nc3c(=O)n(C(C)C(=O)NCc4ccco4)nc(C)c3c2C)cc1 (configuration not stated) | inactive: -2.35%

SMILES | activity change, negative = cytotoxicity
COC(=O)CC1Oc2ccc(Cl)cc2-n2cc(-c3ccccc3)nc21 (configuration not stated) | inactive: 26.1%
Oc1c(C(c2ccccc2)N2CCC(O)CC2)sc2nc(-c3ccco3)nn12 (configuration not stated) | inactive: 3.44%
O=C(NC1(C(F)(F)F)NC(=O)N(CCc2ccccc2)C1=O)c1ccc(Cl)cc1 (configuration not stated) | inactive: 22.7%
COc1ccccc1CNS(=O)(=O)c1cnc(N)nc1 | inactive: 5.08%
COc1ccc(C2c3c(n(C)c4ccccc34)C(=O)N2CC(=O)Nc2cccc(F)c2)cc1 (configuration not stated) | inactive: 0.695%
COc1ccc(NC(=O)c2oc3ccc(S(=O)(=O)N4CCOCC4)cc3c2C)cc1 | inactive: -7.33%
Cc1ccc(N2CC(C)Cn3c2nc2c3c(=O)n(Cc3cccc(Cl)c3)c(=O)n2C)cc1 (configuration not stated) | inactive: 2.02%
CCCc1cc(=O)[nH]c2nnc(SCC)n12 | inactive: 5.81%
O=c1oc2ccc3ccccc3c2cc1-c1nnc(Nc2ccc(F)cc2)s1 | inactive: 4.75%
COc1cccc(CNc2cc(C)nc3nc(-c4ccc(C)cc4)nn23)c1 | inactive: 7.58%
Cc1ccc2c(c1)C(c1ccccc1)N(C(=O)Cc1ccc(F)cc1)CC(=O)N2 (configuration not stated) | inactive: 0.865%
CCCS(=O)(=O)NCCc1sc2nc(-c3ccc(F)cc3)nn2c1C | inactive: -14.7%
Cn1c(=O)[nH]c2cc(-c3noc(-c4ccc(C#N)cc4)n3)ccc21 | inactive: 6.89%
O=C(c1cccn1-c1nnc(N2CCCC2)s1)N1CCN(c2ccc(Cl)cc2)CC1 | inactive: 5.22%
O=C(COc1ccc2ccccc2c1)NC1CC(=O)N(c2cccc(F)c2)C1 (configuration not stated) | inactive: 8.94%
Cc1ccc(S(=O)(=O)Nc2nc3n(n2)C(c2ccc(F)cc2)C=C(c2ccccc2)N3)cc1 (configuration not stated) | inactive: 7.18%
CC1=C(C(=O)Nc2ccc(Cl)cc2)C(CC(C)C)n2nc(SCc3ccccc3C)nc2N1 (configuration not stated) | inactive: -2.54%
COc1ccc(C2=NC(C)(C)N(CC(=O)Nc3cccc(C)c3)C2=O)cc1 | inactive: -27.8%
CN(C)C(=O)c1c(NC(=O)c2ccccc2F)sc2c1CCCC2 | inactive: 1.63%
CC(=O)Nc1ccc(S(=O)(=O)NCC2CCC(C(=O)NCCN(CC(C)C)CC(C)C)CC2)cc1 (configuration not stated) | inactive: 1.51%
COC(=O)c1ccc(C(=O)OC)c(NC(=O)c2ccc(-c3ccccc3)s2)c1 | inactive: 5.5%
COc1cccc(-c2nc(S(=O)(=O)c3ccc(C)cc3)c(N3CCCCC3)o2)c1 | inactive: -9.84%
COc1ccccc1CNC(=O)c1ccc2nc(CCc3ccccc3)oc2c1 | inactive: -1.63%
CCOC(=O)c1c(C)oc2ncnc(Nc3ccc(OC)c(OC)c3)c12 | inactive: -2.27%
COc1ccc(Cn2c(=O)c3cccnc3n(Cc3cccc(F)c3)c2=O)cc1 | inactive: 11.7%

SMILES | activity change, negative = cytotoxicity
COc1ccc(-c2cc3nc(C)c(CCC(=O)NC4CCCCC4)c(C)n3n2)c(OC)c1 | inactive: 1.38%
CCOC(=O)c1ccccc1NC(=O)CSc1nccn1Cc1ccco1 | inactive: -4.51%
COc1ccccc1NC(=O)c1c(C)cc(C)nc1SCC(=O)c1ccc(Cl)cc1 | inactive: -4.17%
CC(C)Oc1ccc(C(=O)N(Cc2ccco2)Cc2cccs2)cc1 | inactive: -15.6%
O=C(CSc1ncc(S(=O)(=O)c2ccc(Cl)cc2)c(=O)[nH]1)Nc1cccc(C(F)(F)F)c1 | inactive: -2.39%
Cc1cccc(C)c1NC(=O)c1sc(-n2nc(C)c(Cc3ccccc3)c2C)nc1C | inactive: 2.19%
Cc1cc(OCC(=O)N(Cc2ccc(N(C)C)cc2)CC2CCCO2)ccc1Cl (configuration not stated) | inactive: -4.71%
NS(=O)(=O)c1ccc(NC(=O)C2Cc3ccccc3N2C(=O)c2ccccc2)cc1 (configuration not stated) | inactive: -18.8%
Cc1ccccc1C(=O)n1nc(-c2cccnc2)nc1NCc1ccccc1 | inactive: 5.22%
COc1ccc(OC)c(CCNC(=O)Cn2ncc3c([nH]c4ccccc43)c2=O)c1 | inactive: 14.2%
CCn1cc2nc(SCC(=O)Nc3ccccc3C(F)(F)F)n(Cc3ccc(C)cc3)c(=O)c2n1 | inactive: -4.22%
COC(=O)c1nnn(CC(=O)NC(=O)Nc2c(C)cccc2C)c1C(=O)OC | inactive: 8.51%
CC1Cc2ccccc2N1S(=O)(=O)c1nnc(NC(=O)c2ccccc2)s1 (configuration not stated) | inactive: 3%
COc1ccc(C2CC(=O)c3cc(-c4nc(-c5ccc(Cl)cc5)cs4)c(=O)[nH]c3C2)cc1OC (configuration not stated) | inactive: 2.38%
COCCCNC(=O)CCC(=O)NNc1nc2ccccc2c2nc(C)nn12 | inactive: 6.27%
CC(C)Oc1ccc(-c2nc3c(C#N)c[nH]n3c2NC2CCCCC2)cc1 | inactive: -7.31%
COc1ccc(N2CC(NC(=O)C(c3ccccc3)c3ccccc3)CC2=O)cc1OC (configuration not stated) | inactive: 4.63%
Cc1ccc(Cn2c(C(C)NC(=O)c3ccccc3)nc3ccccc32)cc1 (configuration not stated) | inactive: -1.03%
CCOc1ccccc1CNc1nc2nc(C)cc(C)n2n1 | inactive: 1.81%
Cn1ccc2cc(S(=O)(=O)N3CCN(C(=O)Nc4ccc(F)cc4F)CC3)ccc21 | inactive: 2.02%
CCOC(=O)c1c(C)[nH]c(CCC(=O)Nc2ccc(OC)c(OC)c2)c1C | inactive: -3.82%
Cc1noc(C)c1S(=O)(=O)N1CCC(C(=O)N2CCN(c3cccc(C(F)(F)F)c3)CC2)CC1 | inactive: -0.777%
CC(C)NC(=O)CCC(=O)N1Cc2ccccc2Oc2ncccc21 | inactive: 10.4%
COc1ccc(-c2cc3ccc(O)c(CN4CCC(C)CC4)c3oc2=O)cc1OC | inactive: -1.24%
Cc1cccc(Cn2cccc2CNS(=O)(=O)c2ccc(Br)cc2)c1 | inactive: -2.19%

SMILES | activity change, negative = cytotoxicity
COc1cc(-c2nnc(SCCOc3cc(C)cc(C)c3)o2)cc(OC)c1OC | inactive: 15.6%
Cc1cc(OC(C)C(=O)Nc2sc3c(c2C(N)=O)CCCC3)ccc1Cl (configuration not stated) | inactive: 12.2%
CC(NC(=O)CN1C(=O)c2cccnc2Oc2ccc(Cl)cc21)c1ccccc1 (configuration not stated) | inactive: -1.6%
Cc1ccccc1CN1C(=O)c2ccccc2S(=O)(=O)c2ccc(C(=O)OCC3CCCO3)cc21 (configuration not stated) | inactive: 1.51%
Cc1ccc(C(C)C)c(OC(C)C(=O)NCC2(N(C)C)CCCCC2)c1 (configuration not stated) | inactive: -0.28%
COc1ccc(S(=O)(=O)Nc2cc(S(=O)(=O)c3ccccc3)c(O)c(C)c2C)cc1 | inactive: 10.2%
O=C(Cn1cc(SCc2ccc(C(F)(F)F)cc2)c2ccccc21)N1CCCC1 | inactive: 3.08%
CCCOc1ccc(-c2nonc2NC(=O)c2oc3ccc(C)cc3c2C)cc1OCCC | inactive: 2.67%
CCOC(=O)N1CCC(NC(=O)c2cnn(-c3cccc(Cl)c3C)c2C2CCN(C(=O)OC(C)(C)C)CC2)CC1 | inactive: 1.31%
COc1ccc(OC)c(NC(=O)c2cc(CN3CCCC3)on2)c1 | inactive: -0.264%
O=C(CC1C(=O)OCCN1Cc1ccccc1)Nc1cccc(C(F)(F)F)c1 (configuration not stated) | inactive: -18.6%
CN1CCN(c2nc3c(S(=O)(=O)c4ccc(Br)cc4)nnn3c3ccsc23)CC1 | inactive: -14.9%
Oc1ccc(Cl)cc1C1=Nc2ccccc2N=C(c2cccc(Br)c2)C1 | inactive: 2.45%
COc1cccc(CN2CCc3nc(N4CCN(c5ncccn5)CC4)ncc3C2)c1 | inactive: -27.8%
CCc1sc(Nc2cccc(Cl)c2C)nc1-c1cc2cccc(OC)c2oc1=O | inactive: -8.97%
Cc1cccc(-c2nc3c4ccccc4nc(NCc4ccc(Cl)cc4)n3n2)c1 | inactive: 4.76%
CC(C)Cn1c(=O)c2sccc2n2c(CCCC(=O)NCc3ccccc3Cl)nnc12 | inactive: 4.49%
COc1ccc(NC(=O)CSc2oc(-c3ccco3)nc2S(=O)(=O)c2ccc(Br)cc2)c(OC)c1 | inactive: -2.77%
CCc1ccc2oc(-c3cc(NC(=O)C(C)C)cc(C)c3O)nc2c1 | inactive: 11.8%
Cc1cc(C)cc(OCCCn2c(CCNC(=O)C3CCCCC3)nc3ccccc32)c1 | inactive: -18.8%
COc1ccc(CCNC(=O)CCCn2c(=O)c3ccccc3n(Cc3c(C)cc(C)cc3C)c2=O)cc1OC | inactive: 12.9%
CCC(=O)N1c2ccc(S(=O)(=O)N3CCC(C)CC3)cc2CC1C (configuration not stated) | inactive: 8.76%

From PubChem BioAssay AID1508642 (National Center for Advancing Translational Sciences (NCATS), 2021)
